Test results from PubChem BioAssay AID720708 (National Center for Advancing Translational Sciences (NCATS), 2013).
The whole screen tested about 360,000 compounds, of which about 660 (0.18%) were called active. The inconclusive results got no clear call from the source; some entries with a clear call stand among them for comparison. Calls follow the shape of the dose curve; as a rule, active = well fitted inhibition curve with a large enough effect; inconclusive = small, poorly fitted or top-dose-only effect; inactive = no such curve, though single readings can be large or run the other way. No potency is given beside an inconclusive call; the fits are too rough.

These molecules were tested against Rap guanine nucleotide exchange factor 4 (Homo sapiens) (UniProt Q8WZA2) (assay: qHTS for Antagonist of cAMP-regulated guanine nucleotide exchange factor 2 (EPAC2): primary screen). Details: EPAC2 GEF exchange of Rap1B-BODIPY-GDP, fluorescence; activity, negative = inhibition: at 114 µM (top of the series) unless noted.
% is scaled to controls: 0 for no effect and ±100 for the full control effect; potency is read from the fitted curve at half-maximal effect; tags tell the direction and shape of the fitted curve.
Also: nearly all actives have a fitted effect of over 45% in size.

Chain of UniProt Q8WZA2 (Q8WZA2 whole entry, looked up): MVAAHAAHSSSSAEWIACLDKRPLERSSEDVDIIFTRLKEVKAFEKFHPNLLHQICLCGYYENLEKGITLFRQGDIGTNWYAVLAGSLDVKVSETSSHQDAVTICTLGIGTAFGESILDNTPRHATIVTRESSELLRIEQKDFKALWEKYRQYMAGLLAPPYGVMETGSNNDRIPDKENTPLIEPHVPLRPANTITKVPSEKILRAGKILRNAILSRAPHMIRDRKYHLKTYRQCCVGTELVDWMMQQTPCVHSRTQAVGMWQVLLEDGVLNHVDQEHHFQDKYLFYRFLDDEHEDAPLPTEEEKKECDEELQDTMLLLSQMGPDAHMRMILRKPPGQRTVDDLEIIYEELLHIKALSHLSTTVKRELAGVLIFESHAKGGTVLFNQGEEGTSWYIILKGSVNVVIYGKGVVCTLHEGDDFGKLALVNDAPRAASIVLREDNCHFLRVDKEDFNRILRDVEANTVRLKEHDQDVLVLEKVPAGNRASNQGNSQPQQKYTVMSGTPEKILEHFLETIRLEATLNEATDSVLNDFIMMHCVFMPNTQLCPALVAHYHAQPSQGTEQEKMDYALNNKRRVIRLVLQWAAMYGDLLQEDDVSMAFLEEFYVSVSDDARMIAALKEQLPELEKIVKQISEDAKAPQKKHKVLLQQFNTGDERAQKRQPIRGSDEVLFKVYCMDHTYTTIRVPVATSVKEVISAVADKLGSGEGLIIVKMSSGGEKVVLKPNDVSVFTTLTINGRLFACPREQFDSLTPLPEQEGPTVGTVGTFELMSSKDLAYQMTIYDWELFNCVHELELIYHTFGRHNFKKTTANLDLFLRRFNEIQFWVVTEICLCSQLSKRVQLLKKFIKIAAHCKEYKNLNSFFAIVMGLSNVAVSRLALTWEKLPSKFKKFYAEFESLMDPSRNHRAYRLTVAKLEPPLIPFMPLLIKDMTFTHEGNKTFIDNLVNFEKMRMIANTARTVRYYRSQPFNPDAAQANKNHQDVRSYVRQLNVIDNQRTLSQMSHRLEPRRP

| SMILES | Potency | activity, negative = inhibition |
| --- | --- | --- |
| O=C(CN1CCN(S(=O)(=O)/C=C/c2ccccc2)CC1)Nc1ccccc1N1CCOCC1 | inconclusive [inhibitor, full curve] |  |
| CNC(=O)N(C1=NCC(C)(C)S1)c1ccc(F)c(Cl)c1 | inconclusive [inhibitor, partial curve] |  |
| CCCCCCCCN1C(=O)[C@H](CC(=O)NCc2cccs2)C[C@@]2(C(=O)OCC)CCCC=C12 | inconclusive [inhibitor, full curve, poor fit] |  |
| COc1ccc(NS(=O)(=O)c2ccc(N3CCOCC3)c(NC(=O)c3ccc(F)cc3)c2)cc1 |  | inactive: 0.0145% |
| CCOc1cc(S(=O)(=O)N(CC)CC)ccc1Br | inconclusive [inhibitor, partial curve] |  |
| O=C(C1CC1)N1CCN(c2ccc([N+](=O)[O-])cc2-n2cccc2)CC1 | inconclusive [inhibitor, partial curve] |  |
| Cc1cc(OCC(=O)C(C)(C)C)c2c(-c3ccccc3)cc(=O)oc2c1 | inconclusive [inhibitor, partial curve] |  |
| CCOC(=O)C1=C(C)N=c2s/c(=C/c3cccc([N+](=O)[O-])c3O)c(=O)n2C1c1cc(OC)c(OC)c(OC)c1 (stereo unspecified) | inconclusive [inhibitor, full curve, poor fit] |  |
| CC(C)CNC(=O)c1cccc(NC(=O)c2ccc(Cl)c([N+](=O)[O-])c2)c1 | inconclusive [inhibitor, single point] |  |
| COc1ccc(OC)c(C(=O)/C=C/c2ccccc2C(F)(F)F)c1 | inconclusive [inhibitor, full curve] |  |
| COc1ccc(NC(=O)CC2Nc3ccccc3NC2=O)c([N+](=O)[O-])c1 (stereo unspecified) |  | inactive: 4.79% |
| C=CCCC1CN(CCCC)S(=O)(=O)c2c(F)cccc2O1 (stereo unspecified) | inconclusive [inhibitor, full curve, poor fit] |  |
| CCOc1ccc(NC(=O)c2ccccc2SC)cc1 | inconclusive [inhibitor, partial curve] |  |
| CC1(NS(=O)(=O)c2ccc(Cl)s2)CCS(=O)(=O)C1 (stereo unspecified) | inconclusive [inhibitor, full curve, poor fit] |  |
| COc1ccc(CCNCC(=O)Nc2ccc(C)c(S(=O)(=O)N(C)C)c2)cc1OC |  | inactive: 1.85% |
| Cc1cc(/C=C2/SC(=O)N(CC(=O)N3CCCC3)C2=O)ccc1N1CCOCC1 | inconclusive [inhibitor, single point] |  |
| O=C(N1CCC(n2nc(-c3ccccc3)oc2=O)CC1)C1(c2ccc(Cl)cc2)CC1 | inconclusive [inhibitor, full curve] |  |
| COc1ccc(C)cc1NCc1cccc(OC)c1OC | inconclusive [inhibitor, single point] |  |
| CN(Cc1nc(Cc2ccccc2F)no1)Cc1cccc2ncccc12 | inconclusive [inhibitor, single point] |  |
| CC(C)n1c(O)c(N=Nc2ccc(Cl)nn2)c2ccccc21 |  | inactive: 26.9% |
| CC(Nc1nc(C(F)(F)F)nc2ccccc12)c1cccs1 (stereo unspecified) | inconclusive [inhibitor, partial curve] |  |

| SMILES | Potency | activity, negative = inhibition |
| --- | --- | --- |
| O=C(c1ccc(=O)oc1)N1CCOCC1 | inconclusive [inhibitor, full curve] |  |
| O=C(NCCc1nc2ccccc2[nH]1)Nc1ccccc1 |  | inactive: -0.563% |
| O=C1c2ccccc2C(=O)c2c1ncn2-c1ccccc1 |  | inactive: 4.9% |
| Fc1ccc2cnc(-c3ccccc3)c(-c3ccc(C(F)(F)F)cc3)c2c1 | inconclusive [inhibitor, full curve] |  |
| CC1CCc2c(ccc3ccccc23)C1=O (stereo unspecified) | inconclusive [inhibitor, partial curve] |  |
| COc1ccc(S(=O)(=O)N(c2onc(C)c2Cl)S(=O)(=O)c2ccc(OC)c(OC)c2)cc1OC |  | inactive: 0.616% |
| CC(C)COC(=O)C(C)Nc1n[nH]c(=S)[nH]c1=O (stereo unspecified) | inconclusive [inhibitor, partial curve] |  |
| COc1ccccc1-c1ncn(Cc2cccc(-c3ccccc3)c2)c1CC(C)C | inconclusive [inhibitor, partial curve] |  |
| Cc1ccccc1OCC(=O)N1N=C(C(F)(F)F)CC1(O)C(C)(C)C (stereo unspecified) | inconclusive [inhibitor, full curve, poor fit] |  |
| CCOc1ccc(C2C(C#N)=C(N)Oc3cc(O)ccc32)cc1OCC (stereo unspecified) | inconclusive [inhibitor, full curve, poor fit] |  |
| N#CCCN(C(=O)COC(=O)Cc1ccc(Br)cc1)c1ccccc1 | inconclusive [inhibitor, partial curve] |  |
| Cc1cc(NC(=O)Cn2nc(C(F)(F)F)c3c2CCCC3)no1 |  | inactive: 12.3% |
| COc1ccc(OCCn2c(=O)sc3ccccc32)cc1 | inconclusive [inhibitor, partial curve] |  |
| Cc1ccc(NC(=O)CN(c2cc(C)cc(C)c2)S(=O)(=O)c2c(C)noc2C)nc1 | inconclusive [inhibitor, full curve, poor fit] |  |
| O=C(NNS(=O)(=O)c1ccc2ccccc2c1)c1cc(-c2ccccn2)nc2ccccc12 | inconclusive [inhibitor, partial curve] |  |
| CCCOC1CCCN(C(=O)c2cc(COc3ccc(F)c(F)c3)on2)C1 (stereo unspecified) | inconclusive [inhibitor, single point] |  |
| COc1ccc2sc(-c3ccc(SC)cc3)c(C#CC(C)(C)O)c2c1 | inconclusive [inhibitor, single point] |  |
| CC(=O)OC1c2ccccc2C(=O)N1Cc1ccccc1Cl (stereo unspecified) | inconclusive [inhibitor, partial curve] |  |
| COc1ccc(CN(C2CC2)S(=O)(=O)c2ccccc2Br)cc1 | inconclusive [inhibitor, full curve] |  |
| CC1=C(C(=O)OCc2ccccc2)C(c2ccc(C(F)(F)F)cc2)NC(=O)N1CCCCCC(=O)O (stereo unspecified) | inconclusive [inhibitor, full curve] |  |
